Laboratory results published in PMC9462479.
Numbering of substitutions follows the chain as printed. These are yes or no findings as the source states them, for the method shown. Binding seen in cells or lysates may run through a third protein. Some results given as binding are weak or reduced against the parent protein; the word gives no strength. Where a sequence is shown, tags or fusion partners need not be part of it.

Columns and labels:
Test in all cases: co-IP; Myc IP: HEK293T cells transfected, lysed in TNE buffer (150 mM NaCl, 1% NP40), anti-myc antibody and Protein G Sepharose, blotted with anti-FLAG
[1] = target: T1, myc-tagged human ARMC5 (pcDNA3.1-myc-hARMC5), wild type (human) (UniProt Q96C12)
T1 sequence: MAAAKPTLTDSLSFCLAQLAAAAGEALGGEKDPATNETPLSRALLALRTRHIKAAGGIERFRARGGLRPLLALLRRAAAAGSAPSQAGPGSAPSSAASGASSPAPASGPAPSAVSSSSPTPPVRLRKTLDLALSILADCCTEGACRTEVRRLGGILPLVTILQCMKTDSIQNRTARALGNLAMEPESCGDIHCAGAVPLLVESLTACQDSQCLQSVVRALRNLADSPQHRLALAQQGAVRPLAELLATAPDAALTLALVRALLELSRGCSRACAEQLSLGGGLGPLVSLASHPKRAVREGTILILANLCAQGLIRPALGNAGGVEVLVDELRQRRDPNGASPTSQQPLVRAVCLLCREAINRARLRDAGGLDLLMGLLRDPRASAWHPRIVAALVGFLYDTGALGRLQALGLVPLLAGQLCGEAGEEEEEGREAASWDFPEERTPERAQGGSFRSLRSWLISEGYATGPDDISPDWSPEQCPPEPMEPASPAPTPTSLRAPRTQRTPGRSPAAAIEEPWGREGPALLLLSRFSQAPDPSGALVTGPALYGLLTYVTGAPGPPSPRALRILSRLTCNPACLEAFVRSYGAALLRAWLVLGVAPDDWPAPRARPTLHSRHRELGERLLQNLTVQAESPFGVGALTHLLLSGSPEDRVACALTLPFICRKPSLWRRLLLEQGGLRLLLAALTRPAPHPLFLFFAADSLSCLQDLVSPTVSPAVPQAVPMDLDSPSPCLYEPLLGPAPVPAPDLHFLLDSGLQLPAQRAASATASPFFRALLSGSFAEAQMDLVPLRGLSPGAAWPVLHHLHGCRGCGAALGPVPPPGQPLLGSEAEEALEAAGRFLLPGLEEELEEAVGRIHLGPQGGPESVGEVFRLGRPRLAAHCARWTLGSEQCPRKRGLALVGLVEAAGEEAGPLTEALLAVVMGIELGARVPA

[2] = target: T2, myc-tagged human ARMC5(R898W) (human) (UniProt Q96C12)
T2 sequence: T1 sequence with R898W

[3] = target: T3, myc-tagged mouse ARMC5 (pcDNA3.1-myc-mArmc5) (mouse) (UniProt Q5EBP3)
T3 sequence: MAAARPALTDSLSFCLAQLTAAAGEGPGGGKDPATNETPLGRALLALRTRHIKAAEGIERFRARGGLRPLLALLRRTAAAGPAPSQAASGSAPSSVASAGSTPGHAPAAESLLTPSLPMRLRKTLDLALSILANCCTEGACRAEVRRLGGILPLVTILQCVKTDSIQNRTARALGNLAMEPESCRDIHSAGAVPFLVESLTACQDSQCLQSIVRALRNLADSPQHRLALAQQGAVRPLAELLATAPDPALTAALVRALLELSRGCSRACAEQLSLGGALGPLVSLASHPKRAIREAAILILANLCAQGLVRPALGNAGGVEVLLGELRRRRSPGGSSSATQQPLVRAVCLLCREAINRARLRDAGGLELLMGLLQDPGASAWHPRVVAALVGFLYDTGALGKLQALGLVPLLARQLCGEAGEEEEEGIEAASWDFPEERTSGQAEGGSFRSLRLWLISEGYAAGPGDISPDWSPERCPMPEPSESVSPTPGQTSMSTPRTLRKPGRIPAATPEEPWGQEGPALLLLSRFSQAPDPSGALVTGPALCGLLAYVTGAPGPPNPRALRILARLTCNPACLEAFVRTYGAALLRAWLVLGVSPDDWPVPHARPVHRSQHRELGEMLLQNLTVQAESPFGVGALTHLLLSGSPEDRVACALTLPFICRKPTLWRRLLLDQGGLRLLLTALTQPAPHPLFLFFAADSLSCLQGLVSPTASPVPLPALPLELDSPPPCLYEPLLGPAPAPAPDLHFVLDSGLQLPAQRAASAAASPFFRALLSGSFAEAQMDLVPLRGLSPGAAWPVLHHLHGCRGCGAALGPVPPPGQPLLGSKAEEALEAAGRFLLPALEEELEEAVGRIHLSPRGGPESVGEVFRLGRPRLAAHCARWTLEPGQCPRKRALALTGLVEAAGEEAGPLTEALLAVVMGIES

Measured: binding

B1: FLAG-SREBF1(N), N-terminus of mouse SREBF1, from pcDNA3.1-FLAG-Srebf1(N) in HEK293T (domain or fragment, UniProt Q9WTN3 2-453)
chain: DELAFGEAALEQTLAEMCELDTAVLNDIEDMLQLINNQDSDFPGLFDAPYAGGETGDTGPSSPGANSPESFSSASLASSLEAFLGGPKVTPAPLSPPPSAPAALKMYPSVSPFSPGPGIKEEPVPLTILQPAAPQPSPGTLLPPSFPAPPVQLSPAPVLGYSSLPSGFSGTLPGNTQQPPSSLPLAPAPGVLPTPALHTQVQSLASQQPLPASAAPRTNTVTSQVQQVPVVLQPHFIKADSLLLTAVKTDAGATVKTAGISTLAPGTAVQAGPLQTLVSGGTILATVPLVVDTDKLPIHRLAAGSKALGSAQSRGEKRTAHNAIEKRYRSSINDKIVELKDLVVGTEAKLNKSAVLRKAIDYIRFLQHSNQKLKQENLTLRSAHKSKSLKDLVSACGSGGGTDVSMEGMKPEVVETLTPPPSDAGSPSQSSPLSFGSRASSSGGSDSEPDSP
binds: all assays above
